This is an account of results in the supplement of paper PMC10185492.

Some of the results follow. These are enrichments in a pooled selection; single values are uncertain. Where only a bound is given, the exact number is not on record here.

This assay has as its system SARS-CoV-2 3CLpro (nsp5). Briefly: substrate phage enrichment score (protease-eluted vs HEPES control, +1 offset) (ratio); higher = better cleaved substrate. The note with it: selection round: 4; protease elution time: 15 min. Here is the method:
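Random heptapeptide substrate phage display (M13 pIII fusion, heptapeptide between an N-terminal biotinylated AviTag GLNDIFEAQKIEWHE and pIII; phages immobilised on streptavidin) eluted by cleavage with 50 nM protease in 20 mM HEPES at 37 °C. Selected phages were NGS sequenced, and the enrichment score is (reads in protease sample + 1)/(reads in HEPES blank-selection control + 1).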
NESDGRP: the “substrate phage enrichment score” value came to 10.5.

As to HGSRGWT, the “substrate phage enrichment score” value was over 66.

For the substance KTPSSMQ, the “substrate phage enrichment score” value is over 186.

Consider SPTPEKG, for which the “substrate phage enrichment score” value is 0.118.

Consider PLFNHYH, for which the “substrate phage enrichment score” value is 1.92.

Regarding ANCYLKP, the “substrate phage enrichment score” value was over 25.

With QRGVCQC, the “substrate phage enrichment score” value is 1.54.

With RFRENLP, the “substrate phage enrichment score” value is over 30.

On to VDFQGGS, for which the “substrate phage enrichment score” value was determined as 2.22.

On to KTMPRSP, for which the “substrate phage enrichment score” value was 12.5.

On to SAASHHH, for which the “substrate phage enrichment score” value turned out to be 0.667.

Consider CSRLQST, for which the “substrate phage enrichment score” value was determined as 45.5.

For RVGPMTQ, the “substrate phage enrichment score” value is 12.

Turning to GTHGSQT, the “substrate phage enrichment score” value came out at 0.643.

Turning to PLAAHHH, the “substrate phage enrichment score” value is 0.282.

Turning to WSVRACR, the “substrate phage enrichment score” value came out at 2.33.

Take SAGMPKR: the “substrate phage enrichment score” value turned out to be 12.

As for PATTVLH, the “substrate phage enrichment score” value was 57.5.

Consider IPRTNER, for which the “substrate phage enrichment score” value worked out at 2.14.

In the case of EHSALTV, the “substrate phage enrichment score” value was 8.

Take ARCCTPE: the “substrate phage enrichment score” value turned out to be 2.43.

LSREWPA: the “substrate phage enrichment score” value turned out to be 23.5.

MEAAHHH: the “substrate phage enrichment score” value turned out to be 0.522.

SQVDSTG: the “substrate phage enrichment score” value amounted to 9.

In the case of LRTSTLQ, the “substrate phage enrichment score” value is over 43.

On to SMQNEEP, for which the “substrate phage enrichment score” value was over 32.

As to VRRENVR, the “substrate phage enrichment score” value was found to be 5.2.

As to HAQLMTR, the “substrate phage enrichment score” value is over 23.

For CNVSMPP, the “substrate phage enrichment score” value is over 59.

Take ASAAAHH: the “substrate phage enrichment score” value is 0.711.

In the case of ESVQIQS, the “substrate phage enrichment score” value is 26.5.

As for TSRCMNL, the “substrate phage enrichment score” value is over 21.

Turning to LNIRDCP, the “substrate phage enrichment score” value amounted to 1.12.

As for PCAQYFQ, the “substrate phage enrichment score” value was 5.77.

For the substance GNAAAHH, the “substrate phage enrichment score” value was 0.467.

Take RCVLSCR: the “substrate phage enrichment score” value is over 21.

Take NPNDWRV: the “substrate phage enrichment score” value was 1.76.

As for PNHHHGA, the “substrate phage enrichment score” value is 0.423.

Consider QQGSDFS, for which the “substrate phage enrichment score” value was 1.27.

For VPGQSWR, the “substrate phage enrichment score” value is 0.219.

As to TRSGGAS, the “substrate phage enrichment score” value is over 31.

For YERSMDG, the “substrate phage enrichment score” value is over 21.

Take GRIETKT: the “substrate phage enrichment score” value stood at 0.556.

Turning to PFPQMTQ, the “substrate phage enrichment score” value is 2.38.

GSMPQVP: the “substrate phage enrichment score” value is over 21.

Take AQVRSIP: the “substrate phage enrichment score” value is 2.56.

Take DSAAAHH: the “substrate phage enrichment score” value is 0.657.

With MTLTDTS, the “substrate phage enrichment score” value was 3.62.

For LNAVHLR, the “substrate phage enrichment score” value stood at 11.4.

Regarding SQPSNHK, the “substrate phage enrichment score” value is over 22.

For RLRTTLQ, the “substrate phage enrichment score” value was over 66.

HVPRQIE: the “substrate phage enrichment score” value amounted to 13.5.

Regarding AIDAEYR, the “substrate phage enrichment score” value was over 22.

As for EYATDSS, the “substrate phage enrichment score” value was 9.67.

As to TRHTTLQ, the “substrate phage enrichment score” value is over 25.

Consider STRLMCQ, for which the “substrate phage enrichment score” value was 10.5.

For DTPTNVR, the “substrate phage enrichment score” value was determined as 1.2.

Take PHRCTFQ: the “substrate phage enrichment score” value was over 28.

Turning to PATAHHH, the “substrate phage enrichment score” value was determined as 2.29.

On to ICCATSG, for which the “substrate phage enrichment score” value was over 38.

For the substance HHTTAQS, the “substrate phage enrichment score” value was determined as 3.6.

For the substance PRSEEHC, the “substrate phage enrichment score” value is over 31.

For the substance PQKLRDP, the “substrate phage enrichment score” value amounted to 0.0541.

As for TKHSRTH, the “substrate phage enrichment score” value came out at 0.789.

With AQQGVTR, the “substrate phage enrichment score” value came to 1.75.

For TRNGSGI, the “substrate phage enrichment score” value amounted to 0.5.

For TSGYLSE, the “substrate phage enrichment score” value was 7.29.

As for AADANLG, the “substrate phage enrichment score” value is over 32.

Turning to VSRDMPG, the “substrate phage enrichment score” value stood at 0.205.

On to SLTSEIG, for which the “substrate phage enrichment score” value is over 23.

Take AENTLLQ: the “substrate phage enrichment score” value was over 21.

With STEHNIR, the “substrate phage enrichment score” value is over 21.

As to SCCTQPG, the “substrate phage enrichment score” value is over 29.

Turning to LKGSSKL, the “substrate phage enrichment score” value is over 23.

For the substance QQCPLDA, the “substrate phage enrichment score” value was 13.

KYSNGKY: the “substrate phage enrichment score” value was determined as 0.65.

Take SRWGRCR: the “substrate phage enrichment score” value came to 1.18.

Turning to PRSSQVG, the “substrate phage enrichment score” value was over 30.

SWCTVPA: the “substrate phage enrichment score” value is over 25.

Take SSSLPNR: the “substrate phage enrichment score” value amounted to 4.75.

RPGLHLE: the “substrate phage enrichment score” value was 3.25.

GEAAHHH: the “substrate phage enrichment score” value was determined as 0.642.

Turning to AWRPEAG, the “substrate phage enrichment score” value was over 22.

On to DRAAAHH, for which the “substrate phage enrichment score” value was 0.289.

KGLICRP: the “substrate phage enrichment score” value is 0.172.

DPQRNSR: the “substrate phage enrichment score” value is 4.83.

Take ARVKLRN: the “substrate phage enrichment score” value is 17.5.

Regarding PVRQSTG, the “substrate phage enrichment score” value was found to be 2.67.

For VIECYMM, the “substrate phage enrichment score” value worked out at 1.45.

On to PNYTGHT, for which the “substrate phage enrichment score” value turned out to be 0.846.

Turning to SPRHSVR, the “substrate phage enrichment score” value came to 2.

With ANRSQWQ, the “substrate phage enrichment score” value stood at 4.8.

Regarding TCGTPKK, the “substrate phage enrichment score” value came to 2.58.

For the substance TRWVHGT, the “substrate phage enrichment score” value was 11.3.

As to TRARCSG, the “substrate phage enrichment score” value was found to be 1.31.

ALLQANK: the “substrate phage enrichment score” value was over 350.

In the case of SSAHHHH, the “substrate phage enrichment score” value was determined as 0.265.

With TTYMSPR, the “substrate phage enrichment score” value is 10.

With VTGDCRE, the “substrate phage enrichment score” value was over 24.

With LMQSPSR, the “substrate phage enrichment score” value is 9.
